Measurements: the RNAGym collection of RNA variant scans (doi:10.7554/elife.90254)
Read counts are not given, so values of variants with three or more changes are uncertain.

B1: OR4K15 (parent)
chain: GUUAACGGUCAUAGGCCAUGGAAACUAGGAGCACCAUUUCGCUGCCAGUGAAGAAAUGAACAAAGAAAAUCUGGGCCAGGCAGGCAUCAAAAGAAAUAGUCUUGCGCUCAACCAGAAAGUCUGUAAUCAUUUUAAGGGUA

Variants of: B1
Assay: self-cleavage, relative activity (ratio to wild type); higher = more cleavage; in vitro, sequencing; the parent is a self-cleaving ribozyme

| Variant | self-cleavage |
| --- | --- |
| GUUAACGGUCAUAGGCCAUGGAAACUAGGAGCACCAUUUCGCUGCCAGUGAAGAAAUGAACAAAGAAAUUCUGGGCCAGGCAGGCAUCAAAAGAGAUAGUCUCGCGCUCAACCAGAAAGUCUGUAAUCAUUUUAAGGGUA [A69U A95G U103C] | 1.7 |
| GUUAACGGUCAUAGGCCAUGGAAACUAGGAGCACCAUUUCGCUGCCAGUGAAGAAAUGGACAAAGAAAAUCUGGGCCAGGCAGGCAUCCAAGGAAAUAGUCUUACGCUCAACCAGAAAGUCUAUAAUCAUUUUAAGGGUA [A59G A89C A92G G104A G123A] | 0.03 |
| GUUGACGGUCAUAGGCCAUGGAAACUAGGAGCACCAUUUCGCUGCCAGUGAAGAAAUGAACAAAGAAAAUCUGGGCCAGGCAGGCAUCAAAAGAAGUAGUCUUGCGCUCAACCAGAAAGUCUGUAAUCAUUUUAAGGGAA [A4G A96G U139A] | 1.18 |
| GUUAACGGUCAUAGGCCAUGGAAACUAGGAGCACCAUUUCGCUGCCAGUGAAGAAAUGAACAAAGAAAAUCUGGGCCAGGCAGGCAUCAAAAGAAAUAGACUUGCGCUCAACCAGAAAGGCUGUAGUCAUUUUAAGGGUA [U100A U120G A126G] | 0.66 |
| GUUAACGGUCAUAGGCCAUGGUAACUAGAAGCACCAUUUCGCUGCCUGUGAAGAAAUGAACAAAGAAAAUCUGGGCCAGGCAGGCAUCAAGAGAAAUAGUCUUGCGCUCAACCAGAAAGUCUGUAAUCAUUUUAAGGGUA [A22U G29A A47U A91G] | 0.77 |
| GUUAACGGUCGUAGGCCGUGGAAACUAGGAGCACCAUUUCGCUGCCAGUGAAGAAAUGAACAAAGAAAAUCAGGGCCAGGCAGGCAUCAAAAGAAAUAGUCUUGCGCUCAACCAGAAAGUCUGUAAUCAUUUUAAGGGUA [A11G A18G U72A] | 0.32 |
| GUUAACGGUCAUAGGCCAUGGAAACUAGGGGCACCAUUUCGCUGCCAGUGAAGAAAUGAACAAAGAAAAUCUGGGCCAGGCAGGCAUCAAAAUAAAUAGUCUUGCGCUCAACCAGAAAGUCUGUAGUCAUUUUAAGGGUA [A30G G93U A126G] | 0.84 |
| GUUAACGGUCAUAGGCCAUGGAAACUAGGAGCACCAUUUCGCUGCCAGUGAAGAAAUGGACAAAGAAAACCUGGGCCAGGCAGGCAUCAAAAGAAAUAGUCUUGCGCUCAACCAGAAAGUCUGUAGUCAUUUUAAGGGUA [A59G U70C A126G] | 0.27 |
| GUUAACGGUCACAGGCCAUGGAAACUAGGAGCACCAUUUCGCUGCCAGUGAAGAAAUGAACAAAGAAAAUCUGGGCCAGGCAGGCAUCGAAAGAAAUAGUCUUGCGCUCAACCAGAAAGUCUGUGAUCAUUUUAAGGGUA [U12C A89G A125G] | 0.14 |
| GUCAACGGUCAUAGGCCAUGGAAACUAGGAGCACCAUUUCGCUGCCAGUGAAGAAAUGAACAAAGAAAAUCUGGGCCAGGCAGGCUUCAAAAGAAGUAGUCUUGCGCUCAACCAGAAAGUCUGUAGUCAUUUUAAGGGUA [U3C A86U A96G A126G] | 1.6 |
| GUUAACGGUCAUAGGCCAUGGAAACUAGGAGCACCAUUUCGCUGCCAGUGAAGAAAUGAACAAAGAAAAUCUGGGCCAGGCAGGCAUCAAAAGAAUUAGUCUUGCGCUCAACCAGAGAGUCUGUAAUCAUUUUAAGGAUA [A96U A117G G138A] | 0.78 |
| GUUAACGGUCAUAGGCCAUGGAAACUAGGAGCACCAUUUCGCUGCCAGUGAAGAAAUGAACAAAGAAAAUCUGGGCCAGGCAGGCAUCAAAAGAAAUAGUCUUGCGCCCCACCAGAAAGUCUGUAAUCAUUUUAAGGGAA [U108C A110C U139A] | 0.01 |
| GUUAACGGUCAUAGGCCAUGGGAACUAGGAGCACCAUUUCGCUGCCAGUGGAGAAAUGAACAAAGAAAAUCUGGGCCAGGCAGGCAUCAAAAGGAAUAGUCUUGCGCCCAACCAGAAAGUCUGUAAUCAUUUUAAGGGUA [A22G A51G A94G U108C] | 0.05 |
| GUUAACGGUCAUAGGCCAUGGAAACUAGGAGCACCAUUUCGCUGCCAGUGGAGAAGUGAACAAAGAAGAUCUGGGCCAGGCAGGCAUCAAAAGAAAUAGUCUUGCGCACAACCAGAAAGUCUGUAAUCAUUUUAAGGGUA [A51G A56G A68G U108A] | 0.05 |
| GUUAACGGUCAAAGGCCAUGGAAACUAGGAGCACCAUUACGCUGCCAGUGAAGAAAUGAACAAAGAAAAUCUGGGCCAGGCAGGCAUCAAAAGAAAUAGUCUUGCGCUCAACCAGAAAGUCCGUAAUCAUUUUAAGGGUA [U12A U39A U122C] | 1.49 |
| GUUAACGGUCAUAGGCCAUGGAAACUAGGAGCACCAUUUCGCUGCCAGUGGAGAAAUGAACAAAGAAAACCUGGGCCAGGCAGGCAUCAAAAGAAAUAGUCUUGCGCUCAACCAGAAAGUCUGUAACCAUUUCAAGGGUA [A51G U70C U127C U133C] | 0.2 |
| GUUGACGGUCAUAGGCCAUGGAAGCUAGGAGCACCAUUUCGCUGCCAGUGAAGAAAUGAACAAAGAAAAUCUGGGCCAGGCAGGCAUCAAAAGGAAUAGUCUUGCGCUCAACCAGAAAGUCUGCAAUCAUUUUAAGGGUA [A4G A24G A94G U124C] | 0.81 |
| GUUAACGGUCACAGGCCAUGGGAACUAGGAGCACCACUUCGCUGCCAGUGAAGAAAUGAACAAAGAAAAUCUGGGCCAGGCAAGCAUCAAAAGAAAUAGUCUUGCGCUCAACCAGAAAGUCUGUAAUCAUUUUAAGGGUA [U12C A22G U37C G83A] | 0.82 |
| GUUAACGGUCAUAGGCCAUGGAAACUAGGAGCACCAUUCCGCUGCCAGUGAAGAAAUGAACAAAGAAAAUCUGGGCCAGGCAGGCAUCAAAAGAAAUAGUCUUGCGCUCAACCAGAAAGUCUGUAGUCAUUUUAAGGGUG [U39C A126G A140G] | 1.81 |
| GUUAACGGUCAUAGGCCAUGGAAGCUAGGAGCACCAUUUCGCUGCCAGUGAAGAAAUGAACAAAGAAAAUCUGGGCCAGGCAGGCAUCAAAAGAAAUAGUCUUGCGCUCAACCAGAAGGUCUGUGAUCAUUAUAGGGGUA [A24G A118G A125G U132A A135G] | 0.03 |
| GUUAACGGUCAUAGGCCAUGGGAACCAGGAGCACCAUUUCGCUGCCAGUGAAGAAAUGAACGAGGAAAAUCUGGGCCAGGCAGGCAUCAAAAGAAAUAGUCUUGCGCUCAACCAGAAAGUCUGUAAUCAUUUUAAGGGUA [A22G U26C A62G A64G] | 0.4 |
